Data from the supplement of paper PMC11417369.
± gives the standard deviation of the averaged measurements. This is one part of the list.

system: PfAP2-G AP2 domain (GST-tagged); assay: gcPBM binding intensity (ln(normalized median fluorescence intensity)); higher = stronger DNA binding
Summary of the method: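 Using an Agilent 4 × 180k array, primer-extended double-stranded 36-bp intergenic genomic probes and negative controls were exposed for 1 h to GST-fused P. falciparum DNA-binding domains expressed in E. coli. Binding was carried out in 1× PBS with 1% milk, 0.2 mg/ml BSA, 0.5% salmon testes DNA and 0.03% Triton X-100, and protein was detected with Alexa488 anti-GST antibody and a 488 nm scan. Binding intensity is the highest Masliner-normalised natural-log median intensity across replicate spots of either probe orientation.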

Row | Sequence | gcPBM binding intensity (ln)
1 | ATAATATAAATATACACACACACATATATATATATA [CACACA_site2905] | 10 ± 0.3
2 | TAATAAGGAATTTATAGTACATATTCATATGTTTTA [XGTACX_site2331] | 10.8 ± 0.59
3 | TTCTTGTATATTCATAGTACATATAATGTCGTGTTA [XGTACX_site8991] | 10.9 ± 0.64
4 | TATGTTTTTGAATGAGTGCATTAAAATAAAACATTT | 10.2 ± 0.27
5 | ATTATTTATATTTGGAGTACTTATAATATTTTTATA [XGTACX_site1289] | 11.6 ± 0.93
6 | AGTGTAAGCTAAGTGGTGCGTTGAATAAGGTTTTTT [GTGCAC_site9951] | 10.03 ± 0.014
7 | TATAGGTATTTGTATACACACAAATGTATATATCTA [CACACA_site6713] | 9.985 ± 0.021
8 | CTTTATATATTTTATTGTACTTAAAAAAAAAAAAAA [XGTACX_site2134] | 11.4 ± 1.1
9 | AAAAAATATGCATATACACACATATGTATAAATAAC [CACACA_site7090] | 10.21 ± 0.099
10 | AAAATATTTATTCCTAGTACTTACCATTATATATAT [XGTACX_site363] | 10.8 ± 0.26
11 | AAAAAAAAATGAAAAGAAAAAAAAAGAAAAAAGGGA [CACACA_negctrl_site287] | 9.825 ± 0.035
12 | TATATTTATACTTATACACACATTATTGAATTAACC [CACACA_site934] | 10.1 ± 0.11
13 | AATGAGCTTTTTAAAAGTACTAAATATAAATAAATA [XGTACX_site3632] | 11 ± 0.58
14 | TATATATGTATATTTTGTACGTATTTATTTACATGA [XGTACX_site4584] | 11.4 ± 0.88
15 | AAAAAAAAAAAAAACACACACACACGCATACACATA [CACACA_site7364] | 10.2 ± 0.2
16 | ATAAATAAAACAAATAGTACAATATAAAAAAAAAGG [XGTACX_site87] | 11.1 ± 0.45
17 | AAGAGGATACACAATGTGCACTTTTTTTTTTTTTTT [GTGCAC_site9415] | 10.7 ± 0.32
18 | TATACAGATATATATACACACATATATATAAATACA [CACACA_site4383] | 9.795 ± 0.049
19 | TATATATATAATATATGTACTCATATTAAGAGATAC [XGTACX_site1354] | 11.4 ± 0.86
20 | AATAGTTGCTAAAGGTGTACAATACATTTATTAGAA [XGTACX_site2773] | 11.3 ± 0.85
21 | TATTACTTAAATAAAAGTACATATAACATTTTAGTT [XGTACX_site196] | 11.4 ± 0.93
22 | GAAAATAAAATATTAGTGCATTATTTGATCAATAAT | 9.725 ± 0.078
23 | TCTTTGGTATTTACATGTACATATTCTTAAAAACAT [XGTACX_site3124] | 11.3 ± 0.84
24 | TGTATAGTCTAAAGTTGTACAAAAAAAAAAAAAAAA [XGTACX_site5764] | 11.3 ± 1
25 | CGAAAAATATGTATGAGTACTTATATTTAAACTATA [XGTACX_site1911] | 11.2 ± 0.64
